The list shows a part of the results. Values were computed here from the reads of four pooled replicates and scatter widely.
Target: T1, Pho4 (S. cerevisiae) (UniProt P07270)
T1 sequence: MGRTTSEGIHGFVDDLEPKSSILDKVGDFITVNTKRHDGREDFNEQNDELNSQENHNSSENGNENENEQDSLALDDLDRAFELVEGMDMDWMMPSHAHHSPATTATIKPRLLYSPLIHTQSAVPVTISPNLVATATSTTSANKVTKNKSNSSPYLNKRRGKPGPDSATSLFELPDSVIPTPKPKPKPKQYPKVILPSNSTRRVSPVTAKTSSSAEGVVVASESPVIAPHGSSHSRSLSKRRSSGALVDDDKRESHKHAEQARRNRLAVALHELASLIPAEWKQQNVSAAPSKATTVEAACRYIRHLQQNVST
Assay: relative binding free energy (BET-seq); higher = weaker binding
Details: reference: library average

Row | Sequence | relative binding free energy [kcal/mol]
1 | GAGGACACGTGGTCGG | -0.13
2 | TGTTCCACGTGATGTG | 0.19
3 | ATCTGCACGTGATTTT | 0.11
4 | GTATGCACGTGGTCGT | -0.17
5 | TGCGACACGTGTGGGA | 0.11
6 | GGGTCCACGTGTTCTT | 0.2
7 | AAGTTCACGTGAGTGT | 0.35
8 | TACATCACGTGAGAGG | 0.38
9 | ATTTACACGTGAAATG | 0.25
10 | AGGGACACGTGTGAGG | 0
11 | TTTTGCACGTGAGATT | 0.39
12 | TGTTTCACGTGATTTC | 0.4
13 | TAGGTCACGTGGTGCT | 0
14 | ACGCTCACGTGGGTGT | 0.06
15 | TGGCGCACGTGGGGAG | -0.13
16 | CAGATCACGTGCGGGG | 0.07
17 | GGGGGCACGTGCCGTG | -0.21
18 | AATATCACGTGGATGG | 0.16
19 | AAGTCCACGTGTTGTT | 0.02
20 | GCGGCCACGTGCGGGG | -0.19
21 | CGCGACACGTGTGGGG | 0
22 | ACAGTCACGTGTGTTT | -0.02
23 | TCTGTCACGTGCTGTT | -0.01
24 | AATGACACGTGCGGTT | 0.05
25 | TTCATCACGTGTTATG | 0.19

Row | Sequence | relative binding free energy [kcal/mol]
26 | AGGTGCACGTGATGGT | 0.13
27 | CGGTACACGTGGTTTG | -0.05
28 | GAGGGCACGTGTGAAC | 0.18
29 | GAGCGCACGTGTGTTA | -0.03
30 | TGAAACACGTGTTAAA | 0.16
31 | GTTAACACGTGTGTTG | 0.16
32 | TTAAACACGTGAGTAG | 0.23
33 | TAATTCACGTGTGGAC | 0.4
34 | GGGGCCACGTGTGAGG | 0.01
35 | GGGTTCACGTGATAGC | 0.51
36 | CGGATCACGTGTGCTG | 0.36
37 | GGGGTCACGTGGCCGG | 0.15
38 | GGAGTCACGTGGGCTA | -0.11
39 | TCCTGCACGTGAGGGG | 0.17
40 | TGTGGCACGTGTTCTG | -0.08
41 | ATGTACACGTGTAGGG | 0.01
42 | TAAAACACGTGGTGAG | 0.03
43 | TTTTGCACGTGTGCTA | -0.01
44 | TTTTACACGTGCAGTA | 0.1
45 | AATGGCACGTGCGGTC | -0.02
46 | TATTGCACGTGTGCGT | -0.04
47 | GGAATCACGTGGTTAT | 0.08
48 | TTATGCACGTGTATTC | -0.05
49 | TCGGGCACGTGGTCTT | -0.25
50 | CTAAACACGTGGAGGG | 0.07

Row | Sequence | relative binding free energy [kcal/mol]
51 | TTGTTCACGTGGGCAA | 0.02
52 | TATGACACGTGGTTTA | -0.04
53 | GCGTTCACGTGTGGCT | 0.34
54 | TGGTACACGTGTTCCG | 0.12
55 | TAGCTCACGTGTTAAG | 0.33
56 | CTTTTCACGTGTGTTG | 0.24
57 | CGGTTCACGTGTTCGT | 0.34
58 | AAAATCACGTGTGATG | 0.19
59 | CATCTCACGTGATGGT | 0.4
60 | GGCTACACGTGGAGGA | 0.17
61 | GGGAGCACGTGTTTAG | -0.12
62 | GTTCACACGTGGTGGG | 0.19
63 | GATTGCACGTGACGGT | 0.23
64 | TGGATCACGTGGCGTA | 0.16
65 | TAGTACACGTGGTAAA | 0.13
66 | TGGTGCACGTGGGCTC | -0.2
67 | TTTTTCACGTGGCTCG | 0.23
68 | TTTAACACGTGGACGG | 0.08
69 | GTATGCACGTGTACGT | -0.08
70 | TCAGTCACGTGTGGGC | 0.12
71 | TTTTCCACGTGGTGGC | 0.05
72 | GTATGCACGTGAAATT | 0.39
73 | ATTTTCACGTGTAGGT | 0.18
74 | TAGTACACGTGGATAA | 0.15
75 | GTGGTCACGTGCGTTC | 0.11

Row | Sequence | relative binding free energy [kcal/mol]
76 | TGGGCCACGTGCGGTT | -0.06
77 | GTAGGCACGTGTCTAG | 0.01
78 | TGGACCACGTGGTGTT | -0.16
79 | GGGAGCACGTGGGAGA | -0.06
80 | TTAGTCACGTGCTGAG | 0.05
81 | GGTGCCACGTGGGGAG | -0.18
82 | GTTGCCACGTGATGTC | 0.28
83 | ATAGTCACGTGTCGTA | 0.07
84 | GAGAGCACGTGTGCGG | -0.18
85 | TATGCCACGTGTGCGG | -0.14
86 | TGGATCACGTGGTTCG | 0.11
87 | GTAGTCACGTGGTGTT | 0.06
88 | ATGCTCACGTGTGGTC | 0.34
89 | GGAGGCACGTGATGCT | 0.01
90 | TGGTTCACGTGTCAAG | 0.29
91 | GCTATCACGTGTTGTG | 0.08
92 | GGTGGCACGTGTGTCG | -0.05
93 | TAGGACACGTGTGGAG | 0.11
94 | GTGTGCACGTGTACTG | -0.2
95 | GGTACCACGTGAGGGC | 0.17
96 | AGTTGCACGTGGCGTC | -0.18
97 | GTCTGCACGTGTGGGC | 0.17
98 | CGGGGCACGTGGGCCA | -0.3
99 | GCGTACACGTGTTATG | 0.02
100 | GGGTTCACGTGGATGG | 0.34

Row | Sequence | relative binding free energy [kcal/mol]
101 | TTCATCACGTGGGGTT | 0
102 | GAGGGCACGTGTTTTT | -0.03
103 | GAGGCCACGTGTGTTG | 0.03
104 | AGATGCACGTGCGGAG | -0.08
105 | AAGTTCACGTGAATGG | 0.45
106 | GCGGTCACGTGTTTTT | 0.32
107 | ATTGGCACGTGTAAGG | -0.02
108 | TGGGACACGTGACTTT | 0.14
109 | TTGGTCACGTGGAGTT | 0.27
110 | GTGGGCACGTGGCTGT | -0.08
111 | AGTTGCACGTGAAGGT | 0.23
112 | ATGTGCACGTGTAATG | 0.07
113 | TTCGGCACGTGGTATT | -0.11
114 | TAGTACACGTGATATG | 0.12
115 | GATGTCACGTGCGTTT | 0.06
116 | TGCGTCACGTGGGTGA | -0.04
117 | AGGGCCACGTGTCGGT | -0.09
118 | CGTAGCACGTGTGATG | -0.12
119 | CGATGCACGTGGGGTA | -0.01
120 | ATATACACGTGTAAGG | 0.11
121 | AGGTGCACGTGGGGCC | -0.28
122 | GTAGTCACGTGCGGAT | 0.01
123 | ATGTGCACGTGGGTCC | -0.16
124 | TTAGACACGTGTTGGA | 0.07
125 | AGGTTCACGTGTGGAC | 0.37

Row | Sequence | relative binding free energy [kcal/mol]
126 | AATTTCACGTGGTTAG | 0.21
127 | GTAGCCACGTGTTATG | 0.07
128 | ATGGGCACGTGCGAGA | -0.19
129 | AGGAGCACGTGGTAGC | -0.02
130 | GTTTTCACGTGTCATG | 0.21
131 | ATTGGCACGTGGTCAT | -0.22
132 | GTGTCCACGTGGGCTG | -0.15
133 | GGGTCCACGTGGGTAG | -0.17
134 | TATGTCACGTGGGGGG | 0.02
135 | GAGCTCACGTGTAAGG | 0.43
136 | TATAGCACGTGTGTTA | -0.15
137 | GGAGGCACGTGTGTCG | -0.07
138 | ATGGACACGTGGGAGA | -0.09
139 | GGCGGCACGTGAAGTG | 0.29
140 | TGTCACACGTGATATG | 0.26
141 | TTGTTCACGTGACGTT | 0.36
142 | CTGGTCACGTGTGTGA | 0.09
143 | ACAAGCACGTGGTGTT | -0.27
144 | AGTTGCACGTGTAGGA | -0.07
145 | CGGTTCACGTGTAGTA | 0.39
146 | TCTTGCACGTGTGGCG | 0.02
